From patent publication US8501961B2, “HIV protease inhibitors and methods for using” (priority 2008, dated 2013)

Key:
[1] = test system: HIV-1-LAI; assay: Antiviral assay in MT-2 cells, inhibition of HIV-1-elicited cytopathic effect; format: cell-based
[2] = target: HIV-1 protease (Human immunodeficiency virus type 1 group M subtype B (isolate HXB2) (HIV-1), UniProt P04585); assay: HIV-1 protease enzyme inhibitory assay (protocol of Toth and Marshall); format: biochemical
[3] = test system: HIV-1ERS104pre (wild-type clinical X4 isolate); assay: Antiviral assay in PHA-PBMC, inhibition of p24Gag production; format: cell-based; details: for IC50: read-out: IC50 (nM) values
[4] = test system: HIV-1 MDR/MM (R5); assay: microbe, parasite or virus in culture; format: cell-based; details: for IC50: read-out: IC50 (nM) values
[5] = test system: HIV-1 MDR/C (X4); assay: microbe, parasite or virus in culture; format: cell-based; details: for IC50: read-out: IC50 (nM) values
[6] = test system: HIV-1 MDR/G (X4); assay: microbe, parasite or virus in culture; format: cell-based; details: for IC50: read-out: IC50 (nM) values
[7] = test system: HIV-1 MDR/JSL (R5); assay: microbe, parasite or virus in culture; format: cell-based; details: for IC50: read-out: IC50 (nM) values
[8] = test system: HIV-1 MDR/A (X4); assay: microbe, parasite or virus in culture; format: cell-based; details: for IC50: read-out: IC50 (nM) values
[9] = test system: HIV-1 MDR/TM; assay: microbe, parasite or virus in culture; format: cell-based; details: for IC50: read-out: IC50 (nM) values
[10] = test system: HIV-1 MDR/B; assay: microbe, parasite or virus in culture; format: cell-based; details: for IC50: read-out: IC50 (nM) values
[11] = test system: MT-2 cells; assay: Cytotoxicity observed in the antiretroviral assay; details: concentrations 1, 0.1, 0.01 and 0.001 μM
[12] = test system: multi-drug-resistant clinical HIV-1 isolates; assay: Antiviral assay in PBMCs, multi-drug-resistant clinical isolates stated collectively; format: cell-based; details: most of / all multi-drug-resistant clinical isolates examined, read-out: IC50 values against the multi-drug-resistant clinical isolates examined
[13] = Human immunodeficiency virus 1, T-lymphoid, MT-2 human T-lymphoid cells exposed to HIV-1-LAI
[14] = Human immunodeficiency virus 1, T-lymphoid, MT-2 human T-lymphoid cells exposed to HIV-1LAI
[15] = Table 3, means of at least two experiments
[16] = Human immunodeficiency virus 1, PBMC
[17] = Table 1, mean values of at least four determinations
[18] = Human immunodeficiency virus 1, PBMC, HIV-1 ERS104pre (wild-type, X4), p24Gag production

| SMILES | IC50 [1, 14] [nM] | Ki [2, 15] | IC50 [4, 16] [nM] | IC50 [5, 16] [nM] | value in parentheses (fold change of IC50 vs wild-type ERS104pre) ([5]; PBMC, MDR/C (X4)) | IC50 [6, 16] [nM] | value in parentheses (fold change of IC50 vs wild-type ERS104pre) ([6]; PBMC, MDR/G (X4)) | IC50 [7, 16] [nM] | value in parentheses (fold change of IC50 vs wild-type ERS104pre) ([7]; PBMC, MDR/JSL (R5)) | IC50 [8, 16] [nM] | value in parentheses (fold change of IC50 vs wild-type ERS104pre) ([8]; PBMC, MDR/A (X4)) | other results |
| --- | --- | --- | --- | --- | --- | --- | --- | --- | --- | --- | --- | --- |
| COc1ccc(S(=O)(=O)N(CC(C)C)C[C@@H](O)[C@H](Cc2ccccc2)NC(=O)OC2CC3OCCO[C@@H]3C2)cc1 (stereo partly drawn) [Inhibitor 103, (1′S,2′R)-{1′-Benzyl-2′-hydroxy-3′-[isobutyl(4-methoxybenzenesulfonyl)amino]propyl} carbamic acid (1β,2β,4β)-1,2-(ethylenedioxy)cyclopent-4-yl ester] | 170 |  |  |  |  |  |  |  |  |  |  | IC50 [1, 13]: 170 nM; IC50 ([1]; MT-2 human T-lymphoid cells exposed to HIV-1LAI): 210 nM |
| COc1ccc(S(=O)(=O)N(CC(C)C)C[C@@H](O)[C@H](Cc2ccccc2)NC(=O)OC2CC3OCO[C@@H]3C2)cc1 (stereo partly drawn) [Inhibitor 102, (1′S,2′R)-{1′-Benzyl-2′-hydroxy-3′-[isobutyl(4-methoxybenzenesulfonyl)amino]propyl} carbamic acid (1β,2β,4β)-1,2-(methylenedioxy)cyclopent-4-yl ester] | 3.8 ± 0.1 | 0.11 to 0.12 nM | 150 | 300 | 10 | 340 | 12 | 550 | 19 | 21 | 1 | IC50 [3, 16]: 29 nM; IC50 value in PBMCs greater than IC50 value in MT-2 cells, factor ([3]; PBMC (HIV-1ERS104pre) vs MT-2 (HIV-1LAI)): ~8 fold; value in parentheses (fold change of IC50 vs wild-type ERS104pre) ([4]; PBMC, MDR/MM (R5)): 5; IC50 [1, 13]: 3.8 nM |
| COc1ccc(S(=O)(=O)N(CC(C)C)C[C@@H](O)[C@H](Cc2ccccc2)NC(=O)O[C@H]2CC3OCOCO[C@@H]3C2)cc1 (stereo partly drawn) [Inhibitor 127, (1S,2R)-{1′-Benzyl-2′-hydroxy-3′-[isobutyl(4-methoxybenzenesulfonyl)amino]propyl} carbamic acid (5aα,7β,8aα)-tetrahydrocyclopenta[f]-1,3,5-trioxaepan-7-yl ester] | > 1000 | 5.4 ± 0.22 nM |  |  |  |  |  |  |  |  |  |  |
| COc1ccc(S(=O)(=O)N(CC(C)C)C[C@@H](O)[C@H](Cc2ccccc2)NC(=O)OC2COCCOCCOC2)cc1 [Inhibitor 3i, (1S,2R)-{1-Benzyl-2-hydroxy-3-[isobutyl(4-methoxybenzenesulfonyl)amino]propyl}carbamic acid 3,6,9-trioxacyclodecan-1-yl ester] |  |  |  |  |  |  |  |  |  |  |  | Ki [2, 17]: 16 ± 2.2 nM |
| CC(C)(C)NC(=O)[C@@H]1CN(Cc2cccnc2)CCN1C[C@@H](O)C[C@@H](Cc1ccccc1)C(=O)N[C@H]1c2ccccc2C[C@H]1O [IDV, Indinavir] |  |  | > 1000 | > 1000 | > 38 | 290 | 11 | > 1000 | > 38 | > 1000 | > 38 | IC50 [9, 16]: > 1000 nM; value in parentheses (fold change of IC50 vs wild-type ERS104pre) ([9]; PBMC, MDR/TM): > 38; IC50 [3, 18]: 26 nM; value in parentheses (fold change of IC50 vs wild-type ERS104pre) ([4]; PBMC, MDR/MM (R5)): > 38; IC50 ([1]; Human immunodeficiency virus 1, T-lymphoid, MT-2 human T-lymphoid cells exposed to HIV-1LAI, read-out: IC50): 30 nM; IC50 [10, 16]: > 1000 nM; value in parentheses (fold change of IC50 vs wild-type ERS104pre) ([10]; PBMC, MDR/B): > 38 |
| CC(C)(C)NC(=O)[C@@H]1C[C@@H]2CCCC[C@@H]2CN1C[C@@H](O)[C@H](Cc1ccccc1)NC(=O)[C@H](CC(N)=O)NC(=O)c1ccc2ccccc2n1 [SQV, saquinavir] |  |  | 190 | 36 |  | 29 |  | 330 |  | 81 |  | IC50 [3, 16]: 12 nM |
| COc1ccc(S(=O)(=O)N(CC(C)C)C[C@@H](O)[C@H](Cc2ccccc2)NC(=O)OC2COCOC2)cc1 [Inhibitor 3h, (1S,2R)-{1-Benzyl-2-hydroxy-3-[isobutyl(4-methoxybenzenesulfonyl)amino]propyl}carbamic acid 1,3-dioxan-5-yl ester] |  |  |  | 160 | 27 | 300 | 50 | 330 | 55 | 13 | 2 | Ki [2, 17]: 0.041 ± 0.002 nM; IC50 [9, 16]: 64 nM; value in parentheses (fold change of IC50 vs wild-type ERS104pre) ([9]; PBMC, MDR/TM): 10; IC50 [3, 16]: 6 nM; IC50 [1, 13]: 3.4 nM; cytotoxicity [11]: no cytotoxicity was observed; IC50 [10, 16]: 230 nM; value in parentheses (fold change of IC50 vs wild-type ERS104pre) ([10]; PBMC, MDR/B): 38 |
| CC(C)c1nc(CN(C)C(=O)N[C@H](C(=O)N[C@@H](Cc2ccccc2)C[C@H](O)[C@H](Cc2ccccc2)NC(=O)OCc2cncs2)C(C)C)cs1 [RTV] |  |  |  |  | > 29 |  | > 29 |  | > 29 |  | > 29 | value in parentheses (fold change of IC50 vs wild-type ERS104pre) ([9]; PBMC, MDR/TM): > 29; IC50 ([9]; PBMC, MDR/TM, p24Gag production): > 1000 nM; IC50 ([3]; PBMC, HIV-1 ERS104pre (wild-type, X4), p24Gag production): 34 nM; value in parentheses (fold change of IC50 vs wild-type ERS104pre) ([4]; PBMC, MDR/MM (R5)): > 29; IC50 ([4]; PBMC, MDR/MM (R5), p24Gag production): > 1000 nM; IC50 ([5]; PBMC, MDR/C (X4), p24Gag production): > 1000 nM; IC50 [12]: > 1000 nM; IC50 ([6]; PBMC, MDR/G (X4), p24Gag production): > 1000 nM; value in parentheses (fold change of IC50 vs wild-type ERS104pre) ([10]; PBMC, MDR/B): > 29; IC50 ([10]; PBMC, MDR/B, p24Gag production): > 1000 nM; IC50 ([7]; PBMC, MDR/JSL (R5), p24Gag production): > 1000 nM; IC50 ([8]; PBMC, MDR/A (X4), p24Gag production): > 1000 nM |
| COc1ccc(S(=O)(=O)N(CC(C)C)C[C@@H](O)[C@H](Cc2ccccc2)NC(=O)O[C@H]2CCOCOC2)cc1 [Inhibitor 3b, (1S,2R)-{1-Benzyl-2-hydroxy-3-[isobutyl(4-methoxybenzenesulfonyl)amino]propyl}carbamic acid (1S)-3,5-Dioxacycloheptan-1-yl ester] |  |  |  |  |  |  |  |  |  |  |  | cytotoxicity [11]: no cytotoxicity was observed |
| COc1ccc(S(=O)(=O)N(CC(C)C)C[C@@H](O)[C@H](Cc2ccccc2)NC(=O)OC2CC3OCOCO[C@@H]3C2)cc1 (stereo partly drawn) [Inhibitor 128, (1′S,2′R)-{1′-Benzyl-2′-hydroxy-3′-[isobutyl(4-methoxybenzenesulfonyl)amino]propyl} carbamic acid (5aα,7a,8aα)-tetrahydrocyclopenta[f]-1,3,5-trioxaepan-7-yl ester] | 380 ± 20 | 0.5 nM and 0.51 nM |  |  |  |  |  |  |  |  |  |  |
| CC(C)CN(C[C@@H](O)[C@H](Cc1ccccc1)NC(=O)O[C@H]1CCOC1)S(=O)(=O)c1ccc(N)cc1 [APV, amprenavir] |  |  | 300 | 230 |  | 340 |  | 430 |  | 100 |  | IC50 [9, 16]: 290 nM; IC50 [3, 18]: 33 nM; IC50 [10, 16]: 320 nM |
| CC(C)CN(C[C@@H](O)[C@H](Cc1ccccc1)NC(=O)OC1CC2OCO[C@@H]2C1)S(=O)(=O)c1ccc(CO)cc1 (stereo partly drawn) [Inhibitor 130, (1′S,2′R)-{1′-Benzyl-2′-hydroxy-3′-[isobutyl(4-(hydroxymethyl)benzenesulfonyl)amino]propyl} carbamic acid (1β,2β,4β)-1,2-(methylenedioxy)cyclopent-4-yl ester] | 7.7 ± 3 | 0.34 ± 0.07 nM |  |  |  |  |  |  |  |  |  |  |

“And” between values parts separate entries of the source, which are not always exact repeats. Identical values can stand only once. Like-named read-outs stand apart in the source and are kept apart here.
